# Experimental data taken from article PMC4336329 (PLoS ONE, 2015).
# Among all 310,000 compounds or so, about 2,200 (0.71%) showed an effect of 50% or more. Effects have a minus sign here. Some of the results follow.
# Biological target: human ether-à-go-go-related gene (hERG) potassium channel (human, UniProt Q12809)
# Assay: primary screen, population patch clamp on CHO cells stably expressing hERG
# Chain of human ether-à-go-go-related gene (hERG) potassium channel (Q12809 whole entry, looked up): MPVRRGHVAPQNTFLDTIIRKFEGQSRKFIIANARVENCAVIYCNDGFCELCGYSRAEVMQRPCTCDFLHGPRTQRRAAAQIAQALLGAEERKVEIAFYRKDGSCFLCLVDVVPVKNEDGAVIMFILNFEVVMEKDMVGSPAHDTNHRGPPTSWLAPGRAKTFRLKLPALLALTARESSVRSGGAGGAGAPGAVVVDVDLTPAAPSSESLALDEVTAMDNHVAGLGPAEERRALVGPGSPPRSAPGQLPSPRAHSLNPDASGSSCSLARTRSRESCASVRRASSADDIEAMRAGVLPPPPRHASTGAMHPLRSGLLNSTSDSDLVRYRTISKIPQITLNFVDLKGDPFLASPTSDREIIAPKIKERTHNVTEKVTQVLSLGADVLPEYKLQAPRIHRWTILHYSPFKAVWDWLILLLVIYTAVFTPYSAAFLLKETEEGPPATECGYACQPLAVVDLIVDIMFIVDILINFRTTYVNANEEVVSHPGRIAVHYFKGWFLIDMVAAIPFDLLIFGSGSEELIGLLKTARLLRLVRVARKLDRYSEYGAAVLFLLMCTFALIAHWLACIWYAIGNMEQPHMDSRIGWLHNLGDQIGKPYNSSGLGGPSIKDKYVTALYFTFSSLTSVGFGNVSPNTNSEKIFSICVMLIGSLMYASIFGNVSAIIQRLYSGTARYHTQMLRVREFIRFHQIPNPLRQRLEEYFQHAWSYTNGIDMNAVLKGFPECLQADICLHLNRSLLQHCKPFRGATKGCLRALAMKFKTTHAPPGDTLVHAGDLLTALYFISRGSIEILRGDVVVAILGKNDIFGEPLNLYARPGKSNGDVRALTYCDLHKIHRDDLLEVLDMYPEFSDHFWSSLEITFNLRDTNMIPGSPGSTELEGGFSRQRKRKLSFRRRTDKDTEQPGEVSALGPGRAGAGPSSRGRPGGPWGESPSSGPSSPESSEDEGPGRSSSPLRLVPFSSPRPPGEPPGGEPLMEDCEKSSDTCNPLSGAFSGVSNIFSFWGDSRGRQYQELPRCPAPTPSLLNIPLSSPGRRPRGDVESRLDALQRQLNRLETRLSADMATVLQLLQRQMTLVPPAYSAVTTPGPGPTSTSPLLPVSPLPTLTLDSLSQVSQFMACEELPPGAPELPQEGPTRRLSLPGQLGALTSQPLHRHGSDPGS
row,Structure (SMILES),"hERG current change (%, negative = inhibition) at 1uM [%]"
1,COc1cc(NC(=O)c2ccc(F)cc2)c(OC)cc1Cl,0.657
2,Cc1ccccc1/C=N/NC(=O)Cc1ccc(Cl)cc1,14.9
3,Cc1nc(NCc2ccccc2)c(C(N)=O)c2c1COC(C)(C)C2,-4.15
4,Cc1ccc2nc(NNC(=O)c3ccc(S(=O)(=O)N4CCc5ccccc5C4)cc3)sc2c1,13.4
5,COc1ccc(CCN(C)C(=O)COc2ccc(C(=O)c3ccccc3)cc2)cc1OC,-7.83
6,CCOc1cc(/C=C/c2ccc3cccc([N+](=O)[O-])c3n2)ccc1OCC(=O)N(C)C,-1.04
7,O=C(CCc1nnc(C2(c3ccc(Cl)cc3)CCC2)o1)N1CCCC1,6.18
8,CCN(CCN1CCCC1)C(=O)C1CCC(=O)N(CCCN2CCOCC2)C1 (stereo not shown),-2.93
9,Cc1cccn2c(=O)c(/C=C(\C#N)C(=O)NCc3ccco3)c(N3CCOCC3)nc12,3.47
10,COc1ccc2[nH]c3c(c2c1)CCNC3=O,9.53
11,CC(C)NC(=O)c1ccc(COc2cc(Cl)ccc2Cl)o1,11.3
12,CN(CCCNC(=O)CSc1cc(=O)n(C)c2cc(Cl)ccc12)Cc1ccccc1,-19.1
13,CC(C)n1nc(C(=O)Nc2ccc3c(c2)OCO3)c2ccccc2c1=O,13.2
14,CCC(C(=O)Nc1cc(Cl)ccc1OC)c1ccccc1 (stereo not shown),9.49
15,CC(=O)NC(Cc1ccc(F)c(F)c1)C(=O)NC1CCN(c2c(Cc3ccccc3)c(C)nc3ncnn23)CC1 (stereo not shown),3.9
16,CCOC(=O)N1CCN(c2ncc(C(F)(F)F)cc2Cl)CC1,19.2
17,CC(C)OC(=O)CC1C(=O)NCCN1C(=S)NC(=O)c1ccccc1 (stereo not shown),7.78
18,CN(c1ncc(C(F)(F)F)cc1Cl)N1C(=O)C2ONC3(C(=O)CC(C)(C)CC3=O)C2C1=O (stereo not shown),10.3
19,CCc1cccc(C)c1NC(=O)COC(=O)c1ccc2c(c1)S(=O)(=O)c1ccccc1C2=O,-5.35
20,CC(C)Cc1ccc(/C=C/C(=O)N2CCCCC2)cc1,9.33
21,CN(C(=S)Nc1ccc(SC(F)F)cc1)c1ccc(O)cc1,7.76
22,COc1ccc(CCC(=O)NCC2CCCCC2)cc1OC,11.8

row,Structure (SMILES),"hERG current change (%, negative = inhibition) at 1uM [%]"
1,Cc1ccc(C)c(NC(=O)C2CC(O)CN2C(=O)OCc2ccccc2)c1 (stereo not shown),2.34
2,Cc1c(C(=O)NNC(=O)c2ccncc2)oc2ccccc12,5.93
3,O=S(=O)(c1ccccc1)N1CCC(n2cnc3ccccc32)CC1,-27.2
4,COc1ccc2c(c1)CCc1c(C(=O)N(C)c3ccccc3)noc1-2,12.1
5,Cc1ccc(C(=O)OCC(=O)NNC(=O)c2cccs2)c(O)c1,15.6
6,Cc1cc(C)n(C(=O)c2cc(F)c(F)cc2C)n1,-5.43
7,COc1cc(C(=O)NC(=S)Nc2ccccc2[N+](=O)[O-])cc(OC)c1OC,9.67
8,FC(F)(F)c1cccc(Cc2noc(CN3CCCC(CN4CCCC4)C3)n2)c1 (stereo not shown),-14
9,COc1ncccc1C(=O)N1CCCC(C(=O)c2cccc(OC(C)C)c2)C1 (stereo not shown),5.3
10,O=C(Nc1nc2ccccc2n1CCN1CCOCC1)c1ccccc1,9.95
11,CCN1CCN(CCCNC(=O)c2ccc(/C=C3/Oc4ccccc4N(Cc4cccc(C)c4)C3=O)cc2)CC1,15
12,CN(CCOc1ccccc1)C(=O)C1CCN(C(=O)c2ccc(Cl)cc2)CC1,-9.82
13,Nc1nc(COC(=O)C2CC(=O)N(Cc3ccccc3)C2)nc(Nc2ccccc2)n1 (stereo not shown),-6.95
14,C/C(=N/N=C1\SCC(=O)N1c1ccccc1)c1ccc(C)cc1,16.6
15,CCOC(=O)N1CCN(C2CCCN(C(=O)c3ccccc3N(C)C)C2)CC1 (stereo not shown),12.3
16,Cc1ccc(NC(=O)C2CCCN2S(=O)(=O)c2ccc3c(c2)n(C)c(=O)c(=O)n3C)cc1 (stereo not shown),0.652
17,CCSc1nnc(NC(=O)c2cccc(OCc3c(C)noc3C)c2)s1,6.83
18,COc1ccc(-c2nsc3c(N4CCCCC4)ncnc23)cc1,-0.389
19,O=C(NC1CCSC1=O)c1cccc(C(=O)NC2CCSC2=O)c1 (stereo not shown),3.01
20,CCCCC(=O)N/N=C/c1c(O)n(CC)c(=S)[nH]c1=O,8.95
21,Cc1nn(Cc2ccccc2)c(C)c1C(=O)Nc1ccc(N2CCOCC2)cc1,11.8
